# Where a SMILES comes first, the peptide text is derived from it. Where no end group is shown, it is not given here. [ ]: non-standard residue; d: D form. The star is where a group is joined. Dansyl = CN(C)c1cccc2c(S(=O)(=O)*)cccc12; Dmt = Cc1cc(O)cc(C)c1C[C@H](N)C(=O)O; 2Abz = Nc1ccccc1C(=O)O; Dap = NC[C@H](N)C(=O)O
# Legend:
# [1] = test system: Caco-2 cells; assay: Subcellular distribution of fluorescent analog (CLSM with TMRM); type: in vitro ADME, human
# [2] = test system: Caco-2 cells; assay: Uptake of fluorescent analog by confocal laser scanning microscopy; type: in vitro ADME, human
# [3] = test system: isolated mouse liver mitochondria; assay: H2O2 production by isolated mitochondria, luminol chemiluminescence; type: biochemical; settings: spontaneous, SS peptides 100 μM
# Method: Because mitochondria are a major source of ROS production, the effect of SS-02 on H2O2 formation in isolated mitochondria under basal conditions as well as after treatment with antimycin, a complex III inhibitor was examined. Livers were harvested from mice and homogenized in ice-cold buffer and centrifuged at 13800×g for 10 m. The pellet was washed once and then re-suspended in 0.3 ml of wash butter and placed on ice until use H2O2 was measured using luminol chemiluminescence as described previously (Y. Li, H. Zhu, M. A. Trush, Biochim. Biophys. Acta 1428, 1-12 (1999)). 0.1 mg mitochondrial protein was added to 0.5 ml potassium phosphate buffer (100 mM, pH 8.0) in the absence or presence of SS peptides (100 μM). 25 mM luminol and 0.7 IU horseradish peroxidase were added, and chemilumunescence was monitored with a Chronolog Model 560 aggregometer (Havertown, Pa.) for 20 min at 37° C. The amount of H2O2 produced was quantified as the area under the curve (AUC) over 20 min, and all data were normalized to AUC produced by mitochondria alone.
# H2O2 was measured using luminol chemiluminescence as described previously (Y, Li, H. Zhu, M. A. Trush, Biochim. Biophys. Acta 1428, 1-12 (1999)). 0.1 mg mitochondrial protein was added to 0.5 ml potassium phosphate buffer (100 mM, pH 8.0) in the absence or presence of SS-31. 25 mM luminol and 0.7 IU horseradish peroxidase were added, and chemilumunescence was monitored with a Chronolog Model 560 aggregometer (Havertown, Pa.) for 20 min at 37° C. The amount of H2O2 produced was quantified as the area under the curve (AUC) over 20 min, and all data were normalized to AUC produced by mitochondria alone.
# [4] = Scavenging of H2O2, luminol-induced chemiluminescence; type: biochemical; settings: H2O2 4.4 nmol, 20 min, 37° C.
# Method: Effect of SS-02 and SS-05 (Dmt-D-Arg-Phe Orn-NH2) on H2O2 as measured by luminol-induced chemiluminescence, 25 μM luminol and 0.7 IU horseradish peroxidase were added to the solution of H2O2 (4.4 nmol) and peptide, and chemiluminescence was monitored with a Chronolog Model 560 aggregometer (Havertown, Pa.) for 20 min at 37° C.
# [5] = test system: Human LDL (low density lipoprotein); assay: LDL oxidation induced by CuSO4 (conjugated dienes); type: biochemical; settings: peptides 100 μM
# Method: Human LDL (low density lipoprotein) was prepared fresh from stored plasma. LDL oxidation was induced catalytically by the addition of […] CuSO4, and the formation of conjugated dienes was monitored at […] for 5 h at 37° C. (B. Moosmann and C. Behl, Mol Pharmacol., 61, 260-268 (2002)).
compound,measurement,setting,value
"Cc1cc(O)cc(C)c1C[C@H](N)C(=O)N[C@H](CCCNC(=N)N)C(=O)N[C@@H](Cc1ccccc1)C(=O)N[C@@H](CNC(=O)c1ccccc1N)C(N)=O [[Dmt^1,AtnDap^4]DALDA, Dmt-D-Arg-Phe-atnDap-NH2] (H-[Dmt][dR]F[Dap](2Abz)-NH2; N-terminus assumed)",distribution nucleus/cytoplasm,[1],completely excluded from the nucleus
same,distribution to mitochondria (overlap with TMRM),[1],to mitochondria was demonstrated
same,incubation time after which uptake was shown,"[1]; 0.1 μM, 37° C.",15 min
"Cc1cc(O)cc(C)c1C[C@H](N)C(=O)N[C@H](CCCNC(=N)N)C(=O)N[C@@H](Cc1ccccc1)C(=O)N[C@@H](CNS(=O)(=O)c1cccc2c(N(C)C)cccc12)C(N)=O [[Dmt^1,DnsDap4]DALDA, Dmt-D-Arg-Phe-dnsDap-NH2] (H-[Dmt][dR]F[Dap](Dansyl)-NH2; N-terminus assumed)",intracellular distribution of fluorescence,[2],diffuse throughout the cytoplasm but was completely excluded from the nucleus
same,uptake into cells (CLSM),"[2]; 0.1 μM, 1 h, 37° C.",confirmed the uptake
A[dR]FK-NH2 [SS-22],amount of H2O2 generated (AUC over 20 min),[3],no effect
Cyclohexyl-D-Arg-Phe-Lys-NH2 [SS-21],amount of H2O2 generated (AUC over 20 min),[3],no effect
Dmt-D-Arg-Phe Orn-NH2 [SS-05],luminol response (H2O2 scavenging),[4],dose-dependently inhibited
same,rate of LDL oxidation (rate of formation of conjugated dienes),[5],reduced rate of LDL oxidation
F[dR][Dmt]K-NH2 [SS-30],rate of LDL oxidation (rate of formation of conjugated dienes),[5],reduced rate of LDL oxidation
same,amount of H2O2 generated (AUC over 20 min),[3],significantly reduced

# Source: patent US9950026B2, “Methods for reducing oxidative damage” (Cornell Research Foundation, Inc., priority 2004, dated 2018)
